Source: paper PMC11402599, “Structural basis of TRPV1 modulation by endogenous bioactive lipids” (Nature Structural & Molecular Biology, 2024)

Target: the molecule itself
Experiment: cryo-EM structure; TRPV1 purified and reconstituted into MSP2N2 lipid nanodiscs (soybean polar lipids or defined lipids); empty pocket, or with PI-Br4, PIP2-Br4, diC8-PIP2 or LPA; grids prepared at 4, 15 or 25 °C; C4, C2 or C1 symmetry

B1: Recombinant minimal functional rat TRPV1 ([…] and […]) (domain or fragment)
chain: not shown
notes: TRPV1, rat, minimal functional construct: […] and […] ([…] left out); TEV protease was added to the nanodisc mixture for 3 h before size-exclusion chromatography; also called minimal TRPV1; transient receptor potential cation channel subfamily V member 1
stoichiometry N: 4
